Measurements published in PubChem BioAssay AID602292 (National Center for Advancing Translational Sciences (NCATS), 2012).
Hit rate of the full screen: of about 1,300 compounds, about 380 (29%) were called active. The shares of active, inactive and inconclusive entries below differ from those in the screen. Calls come from the whole dose curve; as a rule, active = well fitted inhibition curve with a large enough effect; inconclusive = small, poorly fitted or top-dose-only effect; inactive = flat fitted curve, though single readings scatter. No potency is given beside an inconclusive call; the fits are too rough.

Molecular target: Thyrotropin receptor (Homo sapiens) (UniProt P16473)
UniProt P16473, sequence (P16473 whole entry, looked up): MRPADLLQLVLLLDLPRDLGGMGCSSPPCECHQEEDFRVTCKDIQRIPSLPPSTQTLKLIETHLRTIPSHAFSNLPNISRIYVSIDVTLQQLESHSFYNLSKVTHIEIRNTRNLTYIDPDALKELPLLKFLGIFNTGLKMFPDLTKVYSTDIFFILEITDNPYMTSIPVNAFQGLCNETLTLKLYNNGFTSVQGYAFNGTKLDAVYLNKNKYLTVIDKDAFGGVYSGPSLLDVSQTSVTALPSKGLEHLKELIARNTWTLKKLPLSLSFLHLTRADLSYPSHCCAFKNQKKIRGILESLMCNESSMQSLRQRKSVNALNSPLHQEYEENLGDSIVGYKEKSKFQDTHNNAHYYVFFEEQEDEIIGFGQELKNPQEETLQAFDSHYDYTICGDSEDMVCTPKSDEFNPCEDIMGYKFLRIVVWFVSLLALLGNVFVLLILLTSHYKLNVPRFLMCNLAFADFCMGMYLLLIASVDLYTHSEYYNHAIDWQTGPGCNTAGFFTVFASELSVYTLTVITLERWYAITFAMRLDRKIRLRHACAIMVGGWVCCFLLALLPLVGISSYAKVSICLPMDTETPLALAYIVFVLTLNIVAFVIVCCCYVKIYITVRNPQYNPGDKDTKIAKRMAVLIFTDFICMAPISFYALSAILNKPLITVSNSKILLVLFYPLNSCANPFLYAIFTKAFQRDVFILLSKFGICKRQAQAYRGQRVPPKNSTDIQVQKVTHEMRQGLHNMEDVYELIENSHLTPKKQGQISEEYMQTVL
Assay: qHTS for antagonists of the Thyroid Stimulation Hormone Receptor: Hit Validation in Primary Screen; note: nearly all actives have a fitted effect of over 80% in size
Conditions: TSHR-expressing cells, cAMP antagonist mode
Method in brief: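 TSHR-expressing cells were pretreated with compound, then stimulated with TSH at EC80 (4nM final) for 2 hours at 37 deg C. Cellular cAMP measured by competitive HTRF (anti-cAMP cryptate, cAMP-d2) after 30 min at room temperature.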
Potency is the fitted concentration of half-maximal effect; tags give direction and shape of the fitted curve.

SMILES | Potency
Cc1nc(N2CCN(S(=O)(=O)c3ccccc3C#N)CC2)c2c(-c3cccs3)csc2n1 | inconclusive [inhibitor, partial curve, poor fit]
COc1ccc(-c2cc3c(=O)n(CC(=O)NCc4cccnc4)nc(C)n3n2)cc1 | inactive
COc1ccc(/C=N/n2c(C)nnc2C)c(OC)c1OC | inactive
CCC(=O)NC1=C(Cl)C(=O)C(NC(=O)CC)=C(Cl)C1=O | active: 30.1 µM
O=C(Nc1nnc(S(=O)(=O)N2CCCCC2)s1)c1cccc(Br)c1 | inconclusive [inhibitor, partial curve]
Cc1ccc(S(=O)(=O)N2CCCCC2)cc1NC(=O)Cn1ncc(Cl)c(Cl)c1=O | inconclusive [inhibitor, partial curve]
COc1ccc(CNC(=O)Cn2nc(Cc3cccnc3)c3ccccc3c2=O)cc1 | inconclusive [inhibitor, partial curve, poor fit]
Cc1ccc(C(=O)Nc2ccc(Br)c(C(F)(F)F)c2)cc1 | active: 23.9 µM
CC(C)C(c1nnnn1Cc1cccs1)N1CCN(c2ccccc2)CC1 (centres undefined) | inconclusive [inhibitor, partial curve]
O=C(Nc1nnc(C(F)(F)F)s1)c1ccc(Br)s1 | active: 10.7 µM
COc1ccc(/C=N/n2c(SC)nnc(C(C)(C)C)c2=O)cc1 | inconclusive [inhibitor, partial curve]
O=C(O)c1ccc(NC2=C(Cl)C(=O)c3ccccc3C2=O)cc1 | active: 30.1 µM
CC(NC(=O)c1ccc([N+](=O)[O-])o1)C1CC2CCC1C2 (centres undefined) | inconclusive [inhibitor, partial curve]
CC1CC(C)CN(C(=O)c2ccc3c(=O)n(Cc4ccc5c(c4)OCO5)c(=S)[nH]c3c2)C1 (centres undefined) | inconclusive [inhibitor, partial curve, poor fit]
CSc1nnc(NC(=O)c2nc(S(=O)(=O)Cc3ccccc3F)ncc2Cl)s1 | inconclusive [inhibitor, partial curve]
O=C(NCCC1=CCCCC1)c1ccc2c(c1)N(Cc1ccccc1)C(=O)CS2 | inconclusive [inhibitor, partial curve, poor fit]
Cc1ccc(OCc2cc(C(=O)NCC3COCCO3)no2)cc1C (centres undefined) | inactive
Clc1ccc(C2Nc3cccc4cccc(c34)N2)cc1 | inactive
O=C(NCCc1ccccc1)C(=O)NCC1OCCCN1S(=O)(=O)c1cc(F)ccc1F (centres undefined) | inconclusive [inhibitor, partial curve]
CCOC(=O)c1c(NC(=O)CN2C(=O)NC(C)(c3ccc(OC(F)F)cc3)C2=O)sc(C)c1C (centres undefined) | inactive
O=C(NNC(=O)c1n[nH]c(=O)c2ccccc12)c1ccc(Br)cc1 | inactive
Cc1ccc([N+](=O)[O-])cc1S(=O)(=O)Nc1ccc(-c2ccc(N3CCCC3)nn2)cc1 | inconclusive [inhibitor, partial curve]
CCCNc1c(NS(=O)(=O)c2ccc(Br)cc2)c(=O)oc2ccccc12 | inactive

SMILES | Potency
O=C(NCCC1=CCCCC1)C(=O)NCC1OCCCN1S(=O)(=O)c1ccccc1 (centres undefined) | inconclusive [inhibitor, partial curve]
Cc1ccc(-c2nc3ccc(C(=O)O)cc3nc2-c2ccc(C)cc2)cc1 | active: 23.9 µM
COc1ccc(N2CCN(C(c3nnnn3CCc3ccccc3)C(C)C)CC2)cc1 (centres undefined) | inconclusive [inhibitor, partial curve]
Cc1ccc(CNC(=O)c2ccccc2NS(=O)(=O)c2ccc(Cl)nc2)cc1 | inconclusive [inhibitor, partial curve]
COc1ccc(OC)c(C2=NOC(C(=O)NCC3CCCO3)C2)c1 (centres undefined) | inactive
CN(Cc1ccccc1Cl)C(=O)c1cc2ccccc2o1 | inconclusive [inhibitor, partial curve, poor fit]
O=C(NCCCCc1ccccc1)NC[C@@H]1CC[C@@H](Cc2ccc(-c3ccccc3)cc2)O1 | inconclusive [inhibitor, partial curve]
COc1cccc(CN(C)C(=O)c2ccc(OCC(=O)Nc3cccc(C(F)(F)F)c3)c(OC)c2)c1 | active: 23.9 µM
Cc1cccc(CSCCNC(=O)c2ccc(N(C)S(=O)(=O)c3ccccc3)cc2)c1 | inconclusive [inhibitor, partial curve]
O=C1CCCN1c1ccc(S(=O)(=O)Oc2ccc(Cl)cc2)cc1[N+](=O)[O-] | inconclusive [inhibitor, partial curve]
CC(C)C(C)NC(=O)COc1ccc(Sc2ccc(OCC(=O)NC(C)C(C)C)cc2)cc1 (centres undefined) | inconclusive [inhibitor, partial curve]
COc1ccc(S(=O)(=O)N2CCOC23CCN(C(=O)c2ccc(Cl)cc2Cl)CC3)cc1 | inconclusive [inhibitor, partial curve, poor fit]
Cc1ccc(-c2nnc(SCC(=O)NC3CCCC3)n2C)cc1 | inactive
Cc1c(Cl)sn(-c2ccc(Cl)cc2)c1=O | active: 26.9 µM
O=C(NCC1CCCN(C(=O)c2cccc(C(F)(F)F)c2)C1)c1ccc(F)cc1 (centres undefined) | inconclusive [inhibitor, partial curve, poor fit]
CCOC(=O)c1[nH]c2cc(OC)c(OC)cc2c1NC(=O)c1ccc2c(c1)OCO2 | inactive
O=S(=O)(Nc1cc(Cl)ccc1-n1cncn1)c1cc(Br)ccc1Br | active: 15.1 µM
CCN(c1ccc(OC)cc1)S(=O)(=O)c1cc(-c2cc(C)no2)ccc1C(C)C | inactive
COc1ccc(-n2ncc3c(N(C)C4CCCCC4)ncnc32)cc1 | inconclusive [inhibitor, partial curve]
O=S(=O)(Nc1ccc(O)c(Sc2nc3ccccc3s2)c1)c1cccc2ccccc12 | active: 37.9 µM
Cc1ccc(-c2csc(N(CCO)CCCn3c(C(F)(F)F)nc4ccccc43)n2)cc1 | inconclusive [inhibitor, partial curve]
CCc1nnc(NS(=O)(=O)c2ccc(NC(=O)COc3ccc4ccccc4c3)cc2)s1 | inactive
CCc1ccccc1NC(=O)CN1CCN(C(=O)CNC(=O)Cc2cccc3ccccc23)CC1 | inconclusive [inhibitor, partial curve, poor fit]

SMILES | Potency
CCCSc1nsc(NC(=O)Nc2ccc(F)cc2F)n1 | inconclusive [inhibitor, partial curve]
O=C(Cn1cnc2ccccc21)Nc1ccc2c(c1)OCCCO2 | inconclusive [inhibitor, partial curve, poor fit]
Cc1ccc(NC(=O)CSc2nc3ncc(Br)cc3[nH]2)cc1C | inconclusive [inhibitor, partial curve, poor fit]
Cc1ccc(CSCCNC(=O)c2ccc(N(C)S(=O)(=O)c3ccccc3)cc2)cc1 | inconclusive [inhibitor, partial curve]
O=C(CC1C(=O)NCCN1Cc1cccc(F)c1F)NCCCC1CCCC1 (centres undefined) | inactive
Cc1cc(/C=C2\Sc3ccccc3N2C)cc(C)[n+]1CC1CCCO1 (centres undefined) | active: 30.1 µM
O=C(Nc1ncc(S(=O)(=O)c2ccc([N+](=O)[O-])cc2)s1)c1cccc2ccccc12 | inconclusive [inhibitor, partial curve, poor fit]
COc1ccc(-c2csc(NC(=O)c3ccccc3NS(=O)(=O)c3ccc(F)c(F)c3)n2)cc1 | active: 5.36 µM
Nc1nc(SCC(=O)C23CC4CC(CC(C4)C2)C3)n[nH]1 | inconclusive [inhibitor, partial curve]
Cc1ccccc1NC(=O)c1cc2ccccn2n1 | inconclusive [inhibitor, partial curve, poor fit]
CC(C)(C)C(=O)NC(NC(=S)Nc1sc2c(c1C#N)CCCC2)C(Cl)(Cl)Cl (centres undefined) | inconclusive [inhibitor, partial curve]
CCCCS(=O)(=O)/C=C\C=C/S(=O)(=O)CCCC | inconclusive [inhibitor, partial curve]
O=C(Cn1ncc(Cl)c(Cl)c1=O)N1CCN(S(=O)(=O)c2ccc3ccccc3c2)CC1 | active: 9.53 µM
CCOCCCNC(=O)C(NC(=O)c1ccc(=O)[nH]c1)c1ccc(Cl)cc1 (centres undefined) | inactive
O=C(NCCc1ccccc1)c1cccnc1N1CCCCCC1 | inactive
Cc1cc2oc(=O)cc(CSc3nnc(-c4cccs4)o3)c2cc1C(C)C | inconclusive [inhibitor, partial curve]
Cc1cccc(OCc2nnc(SCC(=O)N3c4ccccc4CCc4ccccc43)o2)c1 | inactive
CC(=O)c1cccc(NC(=O)CCCSc2ccccc2)c1 | inactive
Oc1ccc(N=Nc2nccs2)c(O)c1 | inconclusive [inhibitor, partial curve]
CC1SCC(=NOCc2ccccc2)CS1 (centres undefined) | inconclusive [inhibitor, partial curve, poor fit]
N#Cc1ccc(CN2CCN(C(=O)c3ccc(S(=O)(=O)N4CCCCCC4)cc3)CC2)cc1 | inconclusive [inhibitor, partial curve]
CCc1ccc(-c2nc(SCC(=O)NC3CCCC3)n[nH]2)cc1 | inconclusive [inhibitor, partial curve]
O=C(OCCN1C(=O)c2cccc3c(N4CCOCC4)ccc(c23)C1=O)c1cccc(Cl)c1 | inconclusive [inhibitor, partial curve]
